Results on 42 compounds are retold here after ChEMBL document CHEMBL4888484, “Replenishing the malaria drug discovery pipeline: Screening and hit evaluation of the MMV Hit Generation Library 1 (HGL1) against asexual blood stage Plasmodium falciparum ,using a nano luciferase reporter read-out” (2022).

Each structure is given as a SMILES string. The campaign covered roughly 150,000 compounds. About 540 (0.36%) showed an effect of 50% or more. This is one part of the list.

What is called % Inhibition is the drop in the measured response relative to a control, in per cent.

The assay relates to Plasmodium falciparum. The assay can be described thus: Primary screen in NF54 nanoGlo assay, in single point, at 2uM, 72h; a lower Z score goes with more inhibition. Format: functional, Erythrocyte. Conditions: timepoint 72 hour.
As to `COCCN1C(=O)c2ccc(Oc3ccc(Oc4ccc5c(c4)C(=O)N(CCOC)C5=O)cc3)cc2C1=O`, the “% Inhibition” value is on record as -8% and the Z score came out at 0.93.

Turning to `Cc1ccc(=O)n(Cc2nsc(N(C)C)n2)n1`, the “% Inhibition” value is recorded as 6% and the Z score was -0.9.

On to `CCCCN(C)C(=O)COc1cc(C)nc(-c2ccc(Cl)cc2)n1`, for which the “% Inhibition” value is reported as -9% and the Z score amounted to 1.63.

As for `O=C1CCN(Cc2cc(Cl)c3c(c2)OCCCO3)CCN1`, the “% Inhibition” value is recorded as -28% and the Z score is 3.28.

In the case of `CC1CN(C(C)c2nc(-c3cccs3)no2)CC(C)O1` (centres undefined), the “% Inhibition” value is -6% and the Z score was found to be 1.02.

Regarding `CN1CC[C@H]2CC[C@@H](C1)N2Cc1cc2cc3c(cc2nc1-c1ccc(F)cc1)OCO3`, the “% Inhibition” value was -2% and the Z score is reported as 0.23.

For `O=C(NCc1ccc(Br)cc1)N1CCC2(C1)OCCO2`, the “% Inhibition” value is -13% and the Z score came out at 1.64.

On to `CC(C)Oc1ccc(NS(=O)(=O)CC(=O)N[C@@H](Cc2ccccc2)c2ccccc2)cc1`, for which the “% Inhibition” value is given as -4% and the Z score was 0.36.

As to `Cc1nc2ncnn2c(Oc2ccc(-c3ccccc3)cc2)c1C`, the “% Inhibition” value is reported as -15% and the Z score worked out at 1.8.

With `O=C(Nc1nc(C2CC2)cs1)NC1CCN(C2CCCC2)CC1`, the “% Inhibition” value worked out at 1% and the Z score is given as -0.26.

For the compound `Cc1cccc(Oc2c(CCC(=O)NCCN3CCCC3)c(C)nn2-c2cccc(C)c2)c1`, the “% Inhibition” value is 3% and the Z score is reported as -0.39.

Take `Cc1nn(-c2ccccc2)c2ncc(S(=O)(=O)N3C[C@H](O)C(C)(C)C3)cc12`: the “% Inhibition” value is reported as -3% and the Z score turned out to be 0.53.

Take `CC1CC(c2ccc(F)cc2)CN1C(=O)C(N)CCS(C)(=O)=O` (centres undefined): the “% Inhibition” value is recorded as -12% and the Z score was 1.5.

For `COc1ccc(-c2nc(C3(NC(=O)C(F)(F)F)CC3)cs2)cc1`, the “% Inhibition” value is -7% and the Z score was found to be 1.17.

Regarding `CC[C@H](C)N(Cc1ccc(OC)c(OS(=O)(=O)c2ccc(F)cc2)c1)C(=O)Nc1ccc(C(F)(F)F)cc1`, the “% Inhibition” value was -12% and the Z score was 1.1.

`CN(C)C(=O)N1CCN(Cc2noc(C3CCCC3)n2)[C@@H]2CS(=O)(=O)C[C@@H]21`: the “% Inhibition” value came out at 0% and the Z score came out at 0.04.

Consider `O=C(C[C@@H]1O[C@H](CNS(=O)(=O)c2ccc(Cl)cc2)[C@@H](O)[C@H]1O)NC1CC1`, for which the “% Inhibition” value worked out at 32% and the Z score is on record as -3.58.

As to `CC1(C)C[C@@H](O)CCN(c2nnc(-c3ccccc3)s2)C1`, the “% Inhibition” value is -14% and the Z score came out at 1.84.

`O=C1N(CN2CCCCC2)c2ccccc2C12OCCCCO2`: the “% Inhibition” value is -20% and the Z score is on record as 2.62.

With `COCCn1c(=O)c2c(ncn2Cc2cccc(Cl)c2)n(-c2ccccc2C)c1=O`, the “% Inhibition” value was -7% and the Z score was found to be 0.68.

For the compound `O=S(=O)(c1ccc(Oc2ccc(-c3nnco3)cc2)nc1)N1CCC(Cc2ccccc2)CC1`, the “% Inhibition” value is reported as -17% and the Z score amounted to 1.47.

With `CCC(=O)N1c2ccc(S(=O)(=O)N3CCCCC3)cc2C[C@H]1C(=O)NCCCN1CCOCC1`, the “% Inhibition” value was -15% and the Z score amounted to 1.97.

Regarding `O=C(c1nccn2ccnc12)N(Cc1ccncc1)CC1CCCCC1`, the “% Inhibition” value was -1% and the Z score was 0.11.

With `Cc1nnc(CN(C(=O)c2sc(C)nc2C)C(C)(C)C)o1`, the “% Inhibition” value turned out to be 4% and the Z score is -0.45.

Regarding `COC(C)(C)C[C@H](C)Nc1ccnc(N(C)C)n1`, the “% Inhibition” value is reported as 15% and the Z score is -1.88.

For `CCC1(NC(=O)N(C)Cc2nc(C)c[nH]2)CCCC1`, the “% Inhibition” value was -5% and the Z score is listed as 0.68.

Regarding `CC(C)OCc1noc(CN2CC(C)(C)O[C@H]3COC[C@@H]32)n1`, the “% Inhibition” value is given as -1% and the Z score is recorded as 0.16.

On to `Cc1cc(C(=O)NCC(=O)Nc2cn[nH]c2)no1`, for which the “% Inhibition” value is reported as -9% and the Z score was 0.96.

Consider `CCn1ccnc1C(=O)N1CCC[C@H](S(=O)(=O)N2CCc3ccccc32)C1`, for which the “% Inhibition” value is given as 5% and the Z score was -0.52.

As for `COc1ccc(N2C[C@@H](c3noc(-c4cc(F)cc(F)c4)n3)CC2=O)cc1`, the “% Inhibition” value was -13% and the Z score is listed as 1.17.

As to `CCc1cc2c(N3CCOCC3)nc(-c3ccccc3)nc2s1`, the “% Inhibition” value is recorded as -26% and the Z score is 2.4.

Turning to `O=C(CCc1ccc(=O)[nH]c1)N1CCOCC12CCC2`, the “% Inhibition” value is recorded as -11% and the Z score was 1.64.

On to `Cc1nc[nH]c1-c1nccn1-c1cccc(N2CCNC2=O)c1`, for which the “% Inhibition” value worked out at 13% and the Z score is reported as -1.68.

`CCOC1CC(N(C)C(=O)C2CCN(C)C(=O)C2)C12CCCC2` (centres undefined): the “% Inhibition” value is given as -2% and the Z score is reported as 0.29.

For `COc1ccc(CCNCC(=O)N2CCc3ccccc3C2)cc1OC`, the “% Inhibition” value is reported as -2% and the Z score was determined as 0.38.

Turning to `O=C(N[C@@H](CC1CC1)c1ccccc1)N1CC(N2CCCC2=O)C1`, the “% Inhibition” value is recorded as -18% and the Z score was determined as 2.15.

For the compound `c1ccc2cc(-c3cn(CCCN4CCOCC4)nn3)ccc2c1`, the “% Inhibition” value is reported as -5% and the Z score was 0.95.

Consider `COc1ccc2oc(CNC(=O)CCn3nnnc3C)nc2c1`, for which the “% Inhibition” value is recorded as -5% and the Z score turned out to be 0.95.

For the compound `O=S(=O)(O)c1cc(O)c2cc(Nc3ccccc3)ccc2c1`, the “% Inhibition” value is on record as -9% and the Z score was 1.67.

Turning to `CC(=O)Nc1ccc(S(=O)(=O)[C@H]2CS(=O)(=O)C[C@@H]2NCc2cccc(C)c2)cc1`, the “% Inhibition” value is listed as -8% and the Z score amounted to 0.97.

Turning to `CCn1ccc2cc(-c3nc([C@H]4CCOC4)no3)ccc21`, the “% Inhibition” value was -16% and the Z score is given as 1.81.

On to `COC(=O)CN(C(=O)Cc1ccc(C)nc1)c1cccc(F)c1`, for which the “% Inhibition” value is reported as -14% and the Z score stood at 1.89.
